Data on 5 molecules can be found in publication PMC6656775, “Soluble and membrane-bound protein carrier mediate direct copper transport to the ethylene receptor family” (Scientific Reports, 2019).

Holding throughout (assay): split reporter; BiFC (split YFP, 2in1 vectors with RFP infiltration control) in transiently transformed N. benthamiana leaves, confocal microscopy; full-length ETR1 constructs under an inducible promoter, ERS1 and ETR1^1–157 constructs constitutive (d35S)
For experiment [1], the target named is T1, ethylene receptor ERS1, BiFC fusion (UniProt Q38846).
T1 sequence: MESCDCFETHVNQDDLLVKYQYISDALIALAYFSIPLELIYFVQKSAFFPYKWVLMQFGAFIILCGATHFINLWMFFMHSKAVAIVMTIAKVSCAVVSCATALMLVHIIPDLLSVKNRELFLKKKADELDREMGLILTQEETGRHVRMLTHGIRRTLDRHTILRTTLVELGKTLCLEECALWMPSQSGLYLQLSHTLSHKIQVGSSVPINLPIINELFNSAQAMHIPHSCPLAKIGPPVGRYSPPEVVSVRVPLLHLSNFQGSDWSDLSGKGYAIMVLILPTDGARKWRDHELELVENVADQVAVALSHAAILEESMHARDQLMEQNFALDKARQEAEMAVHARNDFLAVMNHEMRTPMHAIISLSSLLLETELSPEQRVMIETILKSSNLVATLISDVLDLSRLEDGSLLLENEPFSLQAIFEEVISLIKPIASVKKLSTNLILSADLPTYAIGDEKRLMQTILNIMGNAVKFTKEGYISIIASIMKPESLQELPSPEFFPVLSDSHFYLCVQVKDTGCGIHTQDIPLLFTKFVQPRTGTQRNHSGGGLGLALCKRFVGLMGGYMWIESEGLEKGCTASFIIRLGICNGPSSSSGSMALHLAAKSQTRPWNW

In experiment [2] the target is T2, ethylene receptor ETR1, full-length, BiFC fusion (A. thaliana) (UniProt P49333).
T2 sequence: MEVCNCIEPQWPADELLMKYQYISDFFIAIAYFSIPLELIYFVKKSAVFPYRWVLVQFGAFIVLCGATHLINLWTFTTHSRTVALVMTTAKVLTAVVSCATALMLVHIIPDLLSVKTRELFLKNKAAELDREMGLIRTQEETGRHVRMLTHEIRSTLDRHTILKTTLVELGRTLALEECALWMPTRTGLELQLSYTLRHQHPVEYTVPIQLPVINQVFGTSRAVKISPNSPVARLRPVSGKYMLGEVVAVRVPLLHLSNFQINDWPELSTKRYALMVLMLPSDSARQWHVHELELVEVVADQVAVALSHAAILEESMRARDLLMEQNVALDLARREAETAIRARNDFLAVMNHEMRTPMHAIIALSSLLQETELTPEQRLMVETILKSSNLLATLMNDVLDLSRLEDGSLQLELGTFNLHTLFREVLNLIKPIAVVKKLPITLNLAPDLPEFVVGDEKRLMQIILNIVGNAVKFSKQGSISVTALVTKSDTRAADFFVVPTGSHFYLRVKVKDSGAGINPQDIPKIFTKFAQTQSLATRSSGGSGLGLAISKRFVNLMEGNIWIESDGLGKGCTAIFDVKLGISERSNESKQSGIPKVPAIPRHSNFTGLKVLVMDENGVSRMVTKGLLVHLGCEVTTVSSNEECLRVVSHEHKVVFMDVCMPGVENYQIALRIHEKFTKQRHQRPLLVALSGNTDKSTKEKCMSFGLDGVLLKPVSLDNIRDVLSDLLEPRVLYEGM

The target of experiment [3] is T3, ETR1^1–157, BiFC fusion (A. thaliana) (UniProt P49333).
T3 sequence: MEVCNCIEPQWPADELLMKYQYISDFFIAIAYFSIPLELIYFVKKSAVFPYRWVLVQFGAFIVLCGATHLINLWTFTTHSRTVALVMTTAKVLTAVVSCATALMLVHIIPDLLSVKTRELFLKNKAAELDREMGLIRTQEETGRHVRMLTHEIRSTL

Experiment [4] deals with T4, RESPONSIVE-TO-ANTAGONIST-1 (RAN1), full-length, BiFC fusion (A. thaliana) (UniProt Q9S7J8).
T4 sequence: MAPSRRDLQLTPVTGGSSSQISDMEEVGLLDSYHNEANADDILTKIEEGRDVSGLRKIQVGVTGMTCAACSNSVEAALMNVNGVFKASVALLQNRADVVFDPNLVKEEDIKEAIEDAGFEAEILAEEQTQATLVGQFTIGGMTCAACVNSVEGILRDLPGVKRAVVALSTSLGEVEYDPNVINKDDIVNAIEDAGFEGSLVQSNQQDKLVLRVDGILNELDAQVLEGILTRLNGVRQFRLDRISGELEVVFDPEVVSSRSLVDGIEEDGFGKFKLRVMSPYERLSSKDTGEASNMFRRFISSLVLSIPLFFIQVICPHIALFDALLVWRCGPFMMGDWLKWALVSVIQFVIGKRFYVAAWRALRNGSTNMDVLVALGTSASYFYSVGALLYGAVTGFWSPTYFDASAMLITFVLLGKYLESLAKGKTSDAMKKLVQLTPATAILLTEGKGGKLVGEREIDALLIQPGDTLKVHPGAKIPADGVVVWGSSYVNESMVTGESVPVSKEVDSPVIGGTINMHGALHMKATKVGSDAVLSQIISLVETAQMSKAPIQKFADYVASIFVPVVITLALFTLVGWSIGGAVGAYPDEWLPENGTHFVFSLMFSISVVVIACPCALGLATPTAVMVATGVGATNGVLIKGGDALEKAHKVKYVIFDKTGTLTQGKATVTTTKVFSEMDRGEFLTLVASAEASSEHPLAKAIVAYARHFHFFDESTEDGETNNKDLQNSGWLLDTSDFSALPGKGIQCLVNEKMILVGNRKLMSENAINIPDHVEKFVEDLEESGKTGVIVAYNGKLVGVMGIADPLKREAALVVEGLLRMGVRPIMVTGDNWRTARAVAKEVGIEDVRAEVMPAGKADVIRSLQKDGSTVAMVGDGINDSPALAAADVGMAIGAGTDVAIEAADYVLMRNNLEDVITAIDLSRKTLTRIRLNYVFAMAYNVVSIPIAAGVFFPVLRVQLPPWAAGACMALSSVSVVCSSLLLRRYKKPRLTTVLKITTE

No constants are given. Whether binding was seen depends on the method and setting. In cells and extracts the contact can be indirect. Some results given as binding are weak or reduced against the parent protein; the word gives no strength. Where a sequence is shown, tags or fusion partners need not be part of it.

B1: RESPONSIVE-TO-ANTAGONIST-1 (RAN1), full-length, BiFC fusion (protein, UniProt Q9S7J8 1-1001)
chain: MAPSRRDLQLTPVTGGSSSQISDMEEVGLLDSYHNEANADDILTKIEEGRDVSGLRKIQVGVTGMTCAACSNSVEAALMNVNGVFKASVALLQNRADVVFDPNLVKEEDIKEAIEDAGFEAEILAEEQTQATLVGQFTIGGMTCAACVNSVEGILRDLPGVKRAVVALSTSLGEVEYDPNVINKDDIVNAIEDAGFEGSLVQSNQQDKLVLRVDGILNELDAQVLEGILTRLNGVRQFRLDRISGELEVVFDPEVVSSRSLVDGIEEDGFGKFKLRVMSPYERLSSKDTGEASNMFRRFISSLVLSIPLFFIQVICPHIALFDALLVWRCGPFMMGDWLKWALVSVIQFVIGKRFYVAAWRALRNGSTNMDVLVALGTSASYFYSVGALLYGAVTGFWSPTYFDASAMLITFVLLGKYLESLAKGKTSDAMKKLVQLTPATAILLTEGKGGKLVGEREIDALLIQPGDTLKVHPGAKIPADGVVVWGSSYVNESMVTGESVPVSKEVDSPVIGGTINMHGALHMKATKVGSDAVLSQIISLVETAQMSKAPIQKFADYVASIFVPVVITLALFTLVGWSIGGAVGAYPDEWLPENGTHFVFSLMFSISVVVIACPCALGLATPTAVMVATGVGATNGVLIKGGDALEKAHKVKYVIFDKTGTLTQGKATVTTTKVFSEMDRGEFLTLVASAEASSEHPLAKAIVAYARHFHFFDESTEDGETNNKDLQNSGWLLDTSDFSALPGKGIQCLVNEKMILVGNRKLMSENAINIPDHVEKFVEDLEESGKTGVIVAYNGKLVGVMGIADPLKREAALVVEGLLRMGVRPIMVTGDNWRTARAVAKEVGIEDVRAEVMPAGKADVIRSLQKDGSTVAMVGDGINDSPALAAADVGMAIGAGTDVAIEAADYVLMRNNLEDVITAIDLSRKTLTRIRLNYVFAMAYNVVSIPIAAGVFFPVLRVQLPPWAAGACMALSSVSVVCSSLLLRRYKKPRLTTVLKITTE
For the molecule B1, the binding result in experiment [1], in experiment [2] and in experiment [3] was “binds” in each case.

B2: COPPER TRANSPORT PROTEIN (CCH), BiFC fusion (protein, UniProt O82089 1-121)
chain: MAQTVVLKVGMSCQGCVGAVNRVLGKMEGVESFDIDIKEQKVTVKGNVEPEAVFQTVSKTGKKTSYWPVEAEAEPKAEADPKVETVTETKTEAETKTEAKVDAKADVEPKAAEAETKPSQV
As to B2, the binding entry in experiment [1], in experiment [2], in experiment [3] and in experiment [4] was “binds” in each case.

B3: CterRAN1 (amino acids 299–1001), BiFC fusion (domain or fragment, UniProt Q9S7J8 299-1001)
chain: FISSLVLSIPLFFIQVICPHIALFDALLVWRCGPFMMGDWLKWALVSVIQFVIGKRFYVAAWRALRNGSTNMDVLVALGTSASYFYSVGALLYGAVTGFWSPTYFDASAMLITFVLLGKYLESLAKGKTSDAMKKLVQLTPATAILLTEGKGGKLVGEREIDALLIQPGDTLKVHPGAKIPADGVVVWGSSYVNESMVTGESVPVSKEVDSPVIGGTINMHGALHMKATKVGSDAVLSQIISLVETAQMSKAPIQKFADYVASIFVPVVITLALFTLVGWSIGGAVGAYPDEWLPENGTHFVFSLMFSISVVVIACPCALGLATPTAVMVATGVGATNGVLIKGGDALEKAHKVKYVIFDKTGTLTQGKATVTTTKVFSEMDRGEFLTLVASAEASSEHPLAKAIVAYARHFHFFDESTEDGETNNKDLQNSGWLLDTSDFSALPGKGIQCLVNEKMILVGNRKLMSENAINIPDHVEKFVEDLEESGKTGVIVAYNGKLVGVMGIADPLKREAALVVEGLLRMGVRPIMVTGDNWRTARAVAKEVGIEDVRAEVMPAGKADVIRSLQKDGSTVAMVGDGINDSPALAAADVGMAIGAGTDVAIEAADYVLMRNNLEDVITAIDLSRKTLTRIRLNYVFAMAYNVVSIPIAAGVFFPVLRVQLPPWAAGACMALSSVSVVCSSLLLRRYKKPRLTTVLKITTE
Regarding B3, the binding entry in experiment [1] and in experiment [2] was “no binding” throughout.

B4: ANTIOXIDANT-1 (ATX1), BiFC fusion (protein, UniProt Q94BT9 1-76)
chain: MSQTVVLRVAMTCEGCVGAVKRVLGKMEGVESFDVDIKEQKVTVKGNVQPDAVLQTVTKTGKKTAFWEAEGETAKA
As to B4, the binding entry in experiment [1], in experiment [2], in experiment [3] and in experiment [4] was “binds” each time.

B5: NterRAN1 (amino acids 1–298), BiFC fusion (domain or fragment, UniProt Q9S7J8 1-298)
chain: MAPSRRDLQLTPVTGGSSSQISDMEEVGLLDSYHNEANADDILTKIEEGRDVSGLRKIQVGVTGMTCAACSNSVEAALMNVNGVFKASVALLQNRADVVFDPNLVKEEDIKEAIEDAGFEAEILAEEQTQATLVGQFTIGGMTCAACVNSVEGILRDLPGVKRAVVALSTSLGEVEYDPNVINKDDIVNAIEDAGFEGSLVQSNQQDKLVLRVDGILNELDAQVLEGILTRLNGVRQFRLDRISGELEVVFDPEVVSSRSLVDGIEEDGFGKFKLRVMSPYERLSSKDTGEASNMFRR
Turning to B5, the binding result in experiment [1], in experiment [2] and in experiment [3] was “binds” throughout.
